# From publication PMC5008010
# Sequences of proteins named here, by UniProt entry; tags and fusion partners are left off. Residues count along the entry.
# UniProt P02545, residues 1-646: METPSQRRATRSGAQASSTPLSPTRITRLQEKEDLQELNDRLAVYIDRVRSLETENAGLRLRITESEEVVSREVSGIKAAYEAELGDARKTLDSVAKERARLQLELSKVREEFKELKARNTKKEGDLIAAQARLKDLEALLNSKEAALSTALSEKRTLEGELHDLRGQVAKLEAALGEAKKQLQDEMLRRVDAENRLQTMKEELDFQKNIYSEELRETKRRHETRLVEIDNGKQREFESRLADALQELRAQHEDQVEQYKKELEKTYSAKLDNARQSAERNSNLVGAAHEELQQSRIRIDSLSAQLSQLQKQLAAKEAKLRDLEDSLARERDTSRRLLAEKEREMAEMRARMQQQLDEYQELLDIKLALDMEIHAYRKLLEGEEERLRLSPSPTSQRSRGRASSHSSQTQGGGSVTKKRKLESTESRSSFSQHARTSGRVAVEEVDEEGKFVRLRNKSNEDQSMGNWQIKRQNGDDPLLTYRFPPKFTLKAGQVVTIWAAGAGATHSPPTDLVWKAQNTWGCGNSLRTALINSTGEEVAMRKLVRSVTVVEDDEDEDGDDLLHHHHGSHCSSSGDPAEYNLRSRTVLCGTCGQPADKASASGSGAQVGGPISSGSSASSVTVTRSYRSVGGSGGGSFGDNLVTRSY
# UniProt P20700: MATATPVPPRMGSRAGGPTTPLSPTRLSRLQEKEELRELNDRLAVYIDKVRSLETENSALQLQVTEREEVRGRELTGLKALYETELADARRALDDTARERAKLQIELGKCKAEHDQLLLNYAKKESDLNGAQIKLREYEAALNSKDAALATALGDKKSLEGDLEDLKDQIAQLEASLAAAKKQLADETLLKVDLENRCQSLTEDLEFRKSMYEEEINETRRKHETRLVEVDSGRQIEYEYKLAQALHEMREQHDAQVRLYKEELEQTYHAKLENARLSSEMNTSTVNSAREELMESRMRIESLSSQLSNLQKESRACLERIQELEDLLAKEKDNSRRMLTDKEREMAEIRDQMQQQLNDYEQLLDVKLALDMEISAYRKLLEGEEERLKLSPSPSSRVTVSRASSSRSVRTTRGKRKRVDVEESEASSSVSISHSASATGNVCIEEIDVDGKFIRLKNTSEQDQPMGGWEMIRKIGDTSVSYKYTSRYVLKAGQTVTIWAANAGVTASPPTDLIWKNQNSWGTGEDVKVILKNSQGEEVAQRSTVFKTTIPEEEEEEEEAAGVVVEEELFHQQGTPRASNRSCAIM
# No constants are given. Whether binding was seen depends on the method and setting. In cells and extracts the contact can be indirect. Some results given as binding are weak or reduced against the parent protein; the word gives no strength. Where a sequence is shown, tags or fusion partners need not be part of it.
# T1: AKTIP-GST (UniProt Q9H8T0)
# T1 sequence: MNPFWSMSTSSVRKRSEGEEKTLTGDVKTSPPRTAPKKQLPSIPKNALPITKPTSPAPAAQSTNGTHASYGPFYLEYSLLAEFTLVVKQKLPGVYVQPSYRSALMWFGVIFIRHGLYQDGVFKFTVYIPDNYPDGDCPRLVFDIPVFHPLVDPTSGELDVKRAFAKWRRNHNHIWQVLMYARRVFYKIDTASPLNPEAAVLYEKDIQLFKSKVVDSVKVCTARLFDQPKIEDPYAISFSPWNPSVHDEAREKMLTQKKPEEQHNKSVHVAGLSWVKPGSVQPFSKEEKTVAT
# T2: AKTIP-GST truncation, C-terminus consisting of 2 α-helices and a distal disordered portion (aa 190-292) (UniProt Q9H8T0)
# T2 sequence: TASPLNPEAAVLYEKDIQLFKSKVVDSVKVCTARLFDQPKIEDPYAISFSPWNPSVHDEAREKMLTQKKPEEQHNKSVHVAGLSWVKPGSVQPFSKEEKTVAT
# T3: AKTIP-GST truncation, N-terminal disordered region (aa 1-70) (UniProt Q9H8T0)
# T3 sequence: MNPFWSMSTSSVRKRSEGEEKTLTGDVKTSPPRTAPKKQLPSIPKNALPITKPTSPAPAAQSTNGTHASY
# T4: AKTIP-GST truncation, central region comprising the UEV portion (aa 70-189) (UniProt Q9H8T0)
# T4 sequence: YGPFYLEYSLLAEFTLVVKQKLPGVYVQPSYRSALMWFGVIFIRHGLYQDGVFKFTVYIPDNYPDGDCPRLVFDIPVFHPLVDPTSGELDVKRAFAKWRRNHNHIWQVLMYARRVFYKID
# T5: AKTIP-FLAG fusion protein (UniProt Q9H8T0)
# T5 sequence: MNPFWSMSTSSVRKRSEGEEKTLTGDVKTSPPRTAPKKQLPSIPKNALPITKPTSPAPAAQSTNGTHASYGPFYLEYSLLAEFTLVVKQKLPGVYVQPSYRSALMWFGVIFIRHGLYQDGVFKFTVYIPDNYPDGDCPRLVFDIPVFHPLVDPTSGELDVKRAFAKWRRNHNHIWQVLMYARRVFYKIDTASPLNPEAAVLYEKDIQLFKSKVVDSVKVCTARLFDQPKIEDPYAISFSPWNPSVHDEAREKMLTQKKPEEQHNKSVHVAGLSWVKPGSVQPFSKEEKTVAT
# Key:
# AKTIP-GST = target: T1, AKTIP-GST; assay: pull-down; purified AKTIP-GST, AKTIP-GST truncations or GST alone used to capture proteins from 293T cell extracts; Western blotting; only the target purified
# [1] = target: T2, AKTIP-GST truncation, C-terminus consisting of 2 α-helices and a distal disordered portion (aa 190-292); assay: as above
# [2] = target: T3, AKTIP-GST truncation, N-terminal disordered region (aa 1-70); assay: as above
# [3] = target: T4, AKTIP-GST truncation, central region comprising the UEV portion (aa 70-189); assay: as above
# [4] = target: T5, AKTIP-FLAG fusion protein; assay: co-IP; anti-FLAG antibody, extracts of 293T cells expressing AKTIP-FLAG; Western blotting for lamin B1
binding (AKTIP-GST),binding [1],binding [2],binding [3],binding [4],Molecule
binds,no binding,no binding,binds,,lamin A/C (from UniProt P02545 1-646)
binds,no binding,no binding,binds,binds,lamin B1 (from UniProt P20700 1-586)
binds,no binding,no binding,binds,,"matrin 3 (protein, UniProt P43243 1-847) MSKSFQQSSLSRDSQGHGRDLSAAGIGLLAAATQSLSMPASLGRMNQGTARLASLMNLGMSSSLNQQGAHSALSSASTSSHNLQSIFNIGSRGPLPLSSQHRGDADQASNILASFGLSARDLDELSRYPEDKITPENLPQILLQLKRRRTEEGPTLSYGRDGRSATREPPYRVPRDDWEEKRHFRRDSFDDRGPSLNPVLDYDHGSRSQESGYYDRMDYEDDRLRDGERCRDDSFFGETSHNYHKFDSEYERMGRGPGPLQERSLFEKKRGAPPSSNIEDFHGLLPKGYPHLCSICDLPVHSNKEWSQHINGASHSRRCQLLLEIYPEWNPDNDTGHTMGDPFMLQQSTNPAPGILGPPPPSFHLGGPAVGPRGNLGAGNGNLQGPRHMQKGRVETSRVVHIMDFQRGKNLRYQLLQLVEPFGVISNHLILNKINEAFIEMATTEDAQAAVDYYTTTPALVFGKPVRVHLSQKYKRIKKPEGKPDQKFDQKQELGRVIHLSNLPHSGYSDSAVLKLAEPYGKIKNYILMRMKSQAFIEMETREDAMAMVDHCLKKALWFQGRCVKVDLSEKYKKLVLRIPNRGIDLLKKDKSRKRSYSPDGKESPSDKKSKTDGSQKTESSTEGKEQEEKSGEDGEKDTKDDQTEQEPNMLLESEDELLVDEEEAAALLESGSSVGDETDLANLGDVASDGKKEPSDKAVKKDGSASAAAKKKLKKVDKIEELDQENEAALENGIKNEENTEPGAESSENADDPNKDTSENADGQSDENKDDYTIPDEYRIGPYQPNVPVGIDYVIPKTGFYCKLCSLFYTNEEVAKNTHCSSLPHYQKLKKFLNKLAEERRQKKET"
